# In the supplement of paper PMC8728848:
# The other results are listed elsewhere or left out.
# Key:
# Assay in all cases: glycan array binding signal (z-score within array); higher = stronger binding
# Details in all cases: glycan notation: IUPAC condensed, linker removed
# [1] = target: GalNAc6S(b1-4)GlcNAc
# In short: (§1)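 Columns mapping to the same glycan were averaged after glycan names were converted to IUPAC-condensed notation. The data come from 3228 arrays in the Consortium for Functional Glycomics database, limited to those with an available protein sequence. Binding is reported as a within-array Z-score averaged across arrays of one protein sequence and across linkers.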
# [2] = target: Glc(a1-4)Glc
# In short: as §1
# [3] = target: Glc(a1-4)Glc(a1-4)Glc(a1-4)Glc
# In short: as §1
# [4] = target: Glc(a1-6)Glc(a1-6)Glc
# In short: as §1
# [5] = target: Glc(a1-6)Glc(a1-6)Glc(a1-6)Glc
# In short: as §1
# [6] = target: Glc(b1-4)Glc
# In short: as §1
# [7] = target: Glc(b1-6)Glc
# In short: as §1
# [8] = target: GlcA(b1-3)Gal
# In short: as §1
# [9] = target: GlcA(b1-3)GlcNAc
# In short: as §1
# [10] = target: GlcA(b1-6)Gal
# In short: as §1
# [11] = target: GlcA3S(b1-3)Gal(b1-4)GlcNAc(b1-2)Man
# In short: as §1
# [12] = target: GlcA3S(b1-3)Gal(b1-4)GlcNAc(b1-3)Gal(b1-4)Glc
# In short: as §1
# [13] = target: GlcNAc(a1-3)Gal(b1-4)GlcNAc
# In short: as §1
# [14] = target: GlcNAc(a1-4)Gal(b1-3)GlcNAc
# In short: as §1
# [15] = target: GlcNAc(a1-4)Gal(b1-4)GalNAc
# In short: as §1
# [16] = target: GlcNAc(a1-4)Gal(b1-4)GlcNAc
# In short: as §1
# [17] = target: GlcNAc(a1-4)Gal(b1-4)GlcNAc(b1-3)Gal(b1-4)Glc
# In short: as §1
# [18] = target: GlcNAc(a1-4)Gal(b1-4)GlcNAc(b1-3)Gal(b1-4)GlcNAc
# In short: as §1
# [19] = target: GlcNAc(a1-4)Gal(b1-4)GlcNAc(b1-3)Gal(b1-4)GlcNAc(b1-3)Gal(b1-4)GlcNAc
# In short: as §1
# [20] = target: GlcNAc(a1-4)Gal(b1-4)GlcNAc(b1-3)Gal(b1-4)[Fuc(a1-3)]GlcNAc(b1-3)Gal(b1-4)[Fuc(a1-3)]GlcNAc
# In short: as §1
# [21] = target: GlcNAc(a1-6)Gal(b1-4)GlcNAc
# In short: as §1
# [22] = target: GlcNAc(b1-2)Gal(b1-3)GalNAc
# In short: as §1
# [23] = target: GlcNAc(b1-2)Man(a1-3)[GlcNAc(b1-2)Man(a1-6)]Man(b1-4)GlcNAc(b1-4)GlcNAc
# In short: as §1
# [24] = target: GlcNAc(b1-2)Man(a1-3)[GlcNAc(b1-2)Man(a1-6)]Man(b1-4)GlcNAc(b1-4)[Fuc(a1-6)]GlcNAc
# In short: as §1
# [25] = target: GlcNAc(b1-2)Man(a1-3)[GlcNAc(b1-4)][GlcNAc(b1-2)Man(a1-6)]Man(b1-4)GlcNAc(b1-4)GlcNAc
# In short: as §1
# [26] = target: GlcNAc(b1-2)Man(a1-3)[GlcNAc(b1-4)][GlcNAc(b1-2)Man(a1-6)]Man(b1-4)GlcNAc(b1-4)[Fuc(a1-6)]GlcNAc
# In short: as §1
# [27] = target: GlcNAc(b1-2)[GlcNAc(b1-4)]Man(a1-3)[GlcNAc(b1-2)Man(a1-6)]Man(b1-4)GlcNAc(b1-4)GlcNAc
# In short: as §1
# [28] = target: GlcNAc(b1-2)[GlcNAc(b1-4)]Man(a1-3)[GlcNAc(b1-4)][GlcNAc(b1-2)Man(a1-6)]Man(b1-4)GlcNAc(b1-4)GlcNAc
# In short: as §1
# [29] = target: GlcNAc(b1-2)[GlcNAc(b1-4)]Man(a1-3)[GlcNAc(b1-4)][GlcNAc(b1-2)[GlcNAc(b1-6)]Man(a1-6)]Man(b1-4)GlcNAc(b1-4)GlcNAc
# In short: as §1
# [30] = target: GlcNAc(b1-2)[GlcNAc(b1-4)]Man(a1-3)[GlcNAc(b1-4)][GlcNAc(b1-2)[GlcNAc(b1-6)]Man(a1-6)]Man(b1-4)GlcNAc(b1-4)[Fuc(a1-6)]GlcNAc
# In short: as §1
# [31] = target: GlcNAc(b1-2)[GlcNAc(b1-6)]Man(a1-6)[GlcNAc(b1-2)Man(a1-3)]Man(b1-4)GlcNAc(b1-4)GlcNAc
# In short: as §1
# [32] = target: GlcNAc(b1-2)[GlcNAc(b1-6)]Man(a1-6)[GlcNAc(b1-2)Man(a1-3)]Man(b1-4)GlcNAc(b1-4)[Fuc(a1-6)]GlcNAc
# In short: as §1
# [33] = target: GlcNAc(b1-2)[GlcNAc(b1-6)]Man(a1-6)[GlcNAc(b1-4)][GlcNAc(b1-2)Man(a1-3)]Man(b1-4)GlcNAc(b1-4)GlcNAc
# In short: as §1
# [34] = target: GlcNAc(b1-3)Fuc
# In short: as §1
# [35] = target: GlcNAc(b1-3)Gal
# In short: as §1
# [36] = target: GlcNAc(b1-3)Gal(b1-3)GalNAc
# In short: as §1
# [37] = target: GlcNAc(b1-3)Gal(b1-4)Glc
# In short: as §1
binder,measurement,setting,value
"LSECtin (Homo sapiens), Q6UXB4 (protein) MDTTRYSKWGGSSEEVPGGPWGRWVHWSRRPLFLALAVLVTTVLWAVILSILLSKASTERAALLDGHDLLRTNASKQTAALGALKEEVGDCHSCCSGTQAQLQTTRAELGEAQAKLMEQESALRELRERVTQGLAEAGRGREDVRTELFRALEAVRLQNNSCEPCPTSWLSFEGSCYFFSVPKTTWAAAQDHCADASAHLVIVGGLDEQGFLTRNTRGRGYWLGLRAVRHLGKVQGYQWVDGVSLSFSHWNQGEPNDAWGRENCVMMLHTGLWNDAPCDSEKDGWICEKRHNC",glycan array binding signal (z-score),[1],-0.138
same,glycan array binding signal (z-score),[2],-0.201
same,glycan array binding signal (z-score),[3],-0.125
same,glycan array binding signal (z-score),[4],-0.232
same,glycan array binding signal (z-score),[5],-0.121
same,glycan array binding signal (z-score),[6],0.426
same,glycan array binding signal (z-score),[7],-0.115
same,glycan array binding signal (z-score),[8],-0.223
same,glycan array binding signal (z-score),[9],-0.168
same,glycan array binding signal (z-score),[10],-0.177
same,glycan array binding signal (z-score),[11],-0.133
same,glycan array binding signal (z-score),[12],-0.132
same,glycan array binding signal (z-score),[13],-0.127
same,glycan array binding signal (z-score),[14],-0.207
same,glycan array binding signal (z-score),[15],3.23
same,glycan array binding signal (z-score),[16],-0.172
same,glycan array binding signal (z-score),[17],-0.167
same,glycan array binding signal (z-score),[18],-0.182
same,glycan array binding signal (z-score),[19],-0.051
same,glycan array binding signal (z-score),[20],0.866
same,glycan array binding signal (z-score),[21],0.337
same,glycan array binding signal (z-score),[22],-0.159
same,glycan array binding signal (z-score),[23],6.75
same,glycan array binding signal (z-score),[24],1.91
same,glycan array binding signal (z-score),[25],6.57
same,glycan array binding signal (z-score),[26],6.3
same,glycan array binding signal (z-score),[27],3.06
same,glycan array binding signal (z-score),[28],0.062
same,glycan array binding signal (z-score),[29],-0.117
same,glycan array binding signal (z-score),[30],-0.132
same,glycan array binding signal (z-score),[31],7.17
same,glycan array binding signal (z-score),[32],9.94
same,glycan array binding signal (z-score),[33],2.46
same,glycan array binding signal (z-score),[34],-0.125
same,glycan array binding signal (z-score),[35],-0.23
same,glycan array binding signal (z-score),[36],-0.115
same,glycan array binding signal (z-score),[37],-0.109
